Hit rate of the full screen: of about 360,000 compounds, about 25,000 (6.9%) were called active. The shares of active, inactive and inconclusive entries below differ from those in the screen. Calls follow the shape of the dose curve; as a rule, active = well fitted inhibition curve with a large enough effect; inconclusive = small, poorly fitted or top-dose-only effect; inactive = flat fitted curve, though single readings scatter. Potencies beside an inconclusive call are fits to weak or partial responses and may not hold up.
These molecules were tested against Luciferin 4-monooxygenase (Photinus pyralis) (UniProt P08659) (assay: qHTS profiling assay for firefly luciferase inhibitor/activator using purifed enzyme and Km concentrations of substrates (counterscreen for miR-21 project)). Details: purified FLuc, luminescence inhibition; series mostly up to 57.5 µM; activity change, negative = inhibition: at the top concentration.
Chain of UniProt P08659 (P08659 whole entry, looked up): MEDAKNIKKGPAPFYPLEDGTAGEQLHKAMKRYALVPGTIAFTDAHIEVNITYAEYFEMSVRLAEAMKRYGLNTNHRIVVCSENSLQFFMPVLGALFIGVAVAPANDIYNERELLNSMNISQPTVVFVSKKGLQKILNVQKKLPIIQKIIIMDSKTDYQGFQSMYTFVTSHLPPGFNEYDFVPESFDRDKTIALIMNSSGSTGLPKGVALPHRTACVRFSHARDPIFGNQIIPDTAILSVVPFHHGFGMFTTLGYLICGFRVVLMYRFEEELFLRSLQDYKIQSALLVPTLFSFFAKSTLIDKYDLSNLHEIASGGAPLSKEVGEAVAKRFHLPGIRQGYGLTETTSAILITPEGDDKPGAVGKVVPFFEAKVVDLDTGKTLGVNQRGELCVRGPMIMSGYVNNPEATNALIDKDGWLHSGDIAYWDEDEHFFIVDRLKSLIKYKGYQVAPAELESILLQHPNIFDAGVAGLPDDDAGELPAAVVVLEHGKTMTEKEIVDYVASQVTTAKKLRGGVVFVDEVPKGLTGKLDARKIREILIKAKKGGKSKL
Method in brief: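 Purified P. pyralis luciferase, 10 nM final, with Km-level 10 uM D-luciferin and 10 uM ATP in 50 mM Tris acetate pH 7.5, 10 mM Mg acetate, 0.01% Tween-20, 0.05% BSA; 6-point qHTS titration about 60 µM downward; luminescence read.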
Also: nearly all actives have a fitted effect of over 55% in size.
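For activity change, negative = inhibition in this document: plate controls were vehicle for no effect and reference inhibitor for full effect.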
Potency is read from the fitted curve at half-maximal effect; tags tell the direction and shape of the fitted curve.

Row | Compound | Potency | activity change, negative = inhibition
1 | Cc1ccccc1Nc1c(-c2ccc(N3CCOCC3)cc2)nc2cccc(C)n12 | active: 1.35 µM | –
2 | Cc1ccc(-n2ncc3c(NCCc4ccc(S(N)(=O)=O)cc4)ncnc32)cc1 | inconclusive: 23.9 µM [inhibitor, partial curve] | –
3 | CC(=O)N1c2ccccc2Oc2cc3ccccc3cc21 | inconclusive: 37.9 µM [inhibitor, single point] | –
4 | CCCCOC(=O)CSc1ncnc2sc3c(c12)CCC(C)C3 (stereo not drawn) | inconclusive: 15.1 µM [inhibitor, partial curve] | –
5 | CC1=C(c2ccc(C)cc2)S(=O)(=O)NC1=NCc1ccccc1Cl | inconclusive: 37.9 µM [inhibitor, single point] | –
6 | O=C(Nc1ccc(NC(=O)C2CC2)cn1)c1ccccc1Cl | inconclusive: 23.9 µM [inhibitor, partial curve] | –
7 | CC(Sc1nc2c(c(=O)[nH]1)CCCC2)C(=O)Nc1ccccc1C#N (stereo not drawn) | – | inactive: -0.159%
8 | O=C(Nc1nc2ccccc2n1CCOc1ccccc1)c1ccco1 | inconclusive: 26.9 µM [inhibitor, partial curve, poor fit] | –
9 | CCOc1ccccc1NC(=O)CSc1ncc2c(n1)-c1ccccc1N(CC)S2(=O)=O | – | inactive: 2.2%
10 | CC(=O)Nc1nc(-c2cccs2)cs1 | inconclusive: 21.3 µM [inhibitor, single point] | –
11 | CCOC(=O)c1cn2nc(SCc3ccccc3)nc2nc1C | inconclusive: 33.8 µM [inhibitor, single point] | –
12 | COc1ccc(N(Cc2cc3ccccc3[nH]c2=O)S(=O)(=O)c2ccc(C)cc2)cc1 | – | inactive: 6.3%
13 | COC(=O)NCCOC(=O)N(O)c1ccc(Br)cc1 | inconclusive: 33.8 µM [inhibitor, single point] | –
14 | NC(=O)C1CCN(Cc2ccc(OCc3ccccc3)cc2)CC1 | active: 15.1 µM | –
15 | O=C(Nc1ccc(N2CCOCC2)cc1)c1ccc([N+](=O)[O-])o1 | active: 8.49 µM | –
16 | CC(Sc1nnnn1C1CCCCC1)C(=O)O (stereo not drawn) | inconclusive: 26.9 µM [inhibitor, partial curve, poor fit] | –
17 | COc1ccc2[nH]c(=O)c(CNc3ccccc3C)cc2c1 | inconclusive: 26.9 µM [inhibitor, single point] | –
18 | CCCCN(CC)c1nc(N)c2c(N)nc(OCC)cc2c1C#N | inconclusive: 26.9 µM [inhibitor, partial curve, poor fit] | –
19 | Cn1cc(/C=C2\SC(=S)N(NC(=O)c3cccc(Cl)c3)C2=O)c2ccccc21 | inconclusive: 16.9 µM [inhibitor, partial curve] | –
20 | Cn1cc(S(=O)(=O)N2CCCCCC2)cc1C(=O)NCc1ccc(F)cc1 | – | inactive: -5.71%
21 | COc1ccccc1C(=O)Nc1nnc(SCC(=O)NC2CCCC2)s1 | active: 4.78 µM | –
22 | COc1ccc(Cc2nc3ccc(C(=O)N(C)CCn4ccnc4)cc3o2)cc1OC | inconclusive: 21.3 µM [inhibitor, single point] | –
23 | COc1cccc(-c2nc(-c3ccccn3)no2)c1 | active: 0.338 µM | –
24 | O=C(CCS(=O)(=O)c1ccc(Br)s1)Nc1cc(C(F)(F)F)cc(C(F)(F)F)c1 | – | inactive: -20%

Row | Compound | Potency | activity change, negative = inhibition
25 | Cn1cccc1C1NC(=O)c2c(sc3c2CCC(C(C)(C)C)C3)N1 (stereo not drawn) | inconclusive: 23.9 µM [inhibitor, single point] | –
26 | COc1ccc(-c2cc(C(=O)NC(Cc3c[nH]c4ccccc34)C(=O)O)c(C)o2)cc1OC (stereo not drawn) | inconclusive: 42.6 µM [inhibitor, partial curve, poor fit] | –
27 | O=C(Nc1nnc(-c2cccs2)s1)c1cccc(F)c1 | inconclusive: 6.01 µM [inhibitor, full curve] | –
28 | O=C(O)/C=C/C(=O)Nc1ccc(Oc2ccccc2)cc1 | inconclusive: 21.3 µM [inhibitor, single point] | –
29 | O=C(CSc1ncccc1C(=O)O)Nc1ccc2c(c1)OCCO2 | active: 10.7 µM | –
30 | CCc1cc(CNC(=O)c2ccc3nc(Cc4ccc(OC)c(OC)c4)oc3c2)on1 | – | inactive: -12.4%
31 | O=C(Nc1nc2ccc(F)cc2s1)c1ccccn1 | active: 0.536 µM | –
32 | COc1ccc(N2CC(C(=O)N[C@H](C(=O)NC(C)c3ccccc3)C(C)C)CC2=O)cc1 (stereo partly drawn) | – | inactive: 0.247%
33 | CC(C)Oc1ccc(C(=O)N(Cc2ccc(N(C)C)cc2)Cc2ccco2)cc1 | inconclusive: 13.5 µM [inhibitor, partial curve, poor fit] | –
34 | CC(C)c1ccccc1NC(=O)Nc1ccc2c(c1)OCO2 | inconclusive: 21.3 µM [inhibitor, partial curve, poor fit] | –
35 | COC(=O)Cc1ccc(NC(=O)c2ccccc2Cl)cc1 | active: 15.1 µM | –
36 | COc1cc(C(=O)NCC(=O)OCCN2C(=O)c3ccccc3C2=O)cc(OC)c1OC | – | inactive: -0.607%
37 | O=C(Nc1cc2c(cc1C(=O)O)OCCCO2)c1ccc(F)cc1F | active: 21.3 µM | –
38 | Cc1ccc(NC(=O)C(=O)N2CCCC2)cc1Cl | active: 2.13 µM | –
39 | Cc1ccc(S(=O)(=O)Nc2cc(Cl)c3oc4c(c3c2)CCCC4)cc1 | inconclusive: 8.49 µM [inhibitor, partial curve, poor fit] | –
40 | Oc1ccc(-c2csc(Nc3ccccn3)n2)c(O)c1 | active: 4.78 µM | –
41 | c1ccc(CCN2CCN(c3ncnc4c3cnn4-c3ccccc3)CC2)cc1 | – | inactive: -10.8%
42 | CC1CCN(S(=O)(=O)c2ccc(C(=O)Nc3ccccn3)cc2)CC1 | inconclusive: 19 µM [inhibitor, partial curve] | –
43 | CCC(C)NC(=O)c1cc(CC(C)C)on1 (stereo not drawn) | inconclusive: 23.9 µM [inhibitor, partial curve] | –
44 | O=c1c(C=NCCCn2ccnc2)c(-c2ccccc2)[nH]n1-c1nc2ccccc2s1 | active: 16.9 µM | –
45 | COc1ccc(-c2cn3cc(C)ccc3n2)cc1F | active: 0.239 µM | –
46 | O=C(Nc1ccc(SC(F)F)cc1)C1CC(=O)N(Cc2ccccc2)C1 (stereo not drawn) | inconclusive: 19 µM [inhibitor, partial curve] | –
47 | COc1ccc(-c2nc(C)c(CCNC(=O)c3ccc(C(F)(F)F)cc3)s2)cc1OC | inconclusive: 23.9 µM [inhibitor, single point] | –
48 | COc1ccc(-c2cn3c(C)c(C(=O)Nc4ccncc4)sc3n2)cc1 | inconclusive: 19 µM [inhibitor, partial curve, poor fit] | –
